Structures can show the parent of a compound that is named as a salt. At least one read-out could not be matched to a standard name with certainty.
System: cpA neuron
Test: Inhibition screen: odorant overlaid on 0.15% CO2 stimulus, cpA response
Assay type: cell-based, Aedes aegypti
Details: 1-s odorant stimulus (10^−2) in the middle of a 3-s 0.15% CO2 stimulus, vs solvent overlay
Experimental: Percent inhibition was calculated by comparing mean odorant overlay responses to mean solvent overlay responses, and error bars are s.d.
CpA-off and sham treated mosquitoes were pre-treated for 3 min in an upended 1 L glass dish in which 100 μl of fresh butyryl chloride (1%) or paraffin oil was allowed to vaporize for 10-20 min. The odor delivery system for different screens is shown in FIG. 7b; solvent responses during the same recording session were subtracted. Inhibition screen was tested. For the ultra-prolonged activator the 3-s stimulus was delivered from a 10 ml disposable pipette using a CS-55 stimulus controller (Syntech), CO2 was delivered, and responses to subsequent odor stimuli were calculated by subtracting baseline activity 1 s prior to each stimulus. When responses to repeated pulses of cyclopentanone and CO2 were compared, baseline activity between seconds 5 and 6 following each stimulus was subtracted. Spike counting was done manually or with Igor Pro6.2 (Wavemetrics) with the Neuromatic v2.00 macro (by Jason Rothman), and peak-to-peak spike amplitudes for FIG. 8 were analysed in Clampfit 10.3 (Molecular Devices).

SMILES	% Inhibition
CCC(C)C=O (stereo not shown) [2-methylbutanal]	0.0%
OCCCc1ccccc1 [3-phenylpropan-1-ol]	14.5%
C/C=C/C(=O)O [(E)-but-2-enoic acid]	−4.8%
CCCC1OCC(C)O1 (stereo not shown) [4-methyl-2-propyl-1,3-dioxolane]	−2.4%
Cc1nccnc1CC(C)C [2-methyl-3-(2-methylpropyl)pyrazine]	−2.9%
CC(C)=CCCC(C)CCO (stereo not shown) [3,7-dimethyloct-6-en-1-ol]	−3.6%
CC1=CC(O)CCC1 (stereo not shown) [3-methylcyclohex-2-en-1-ol]	−7.7%
O=COC/C=C/c1ccccc1 [[(E)-3-phenylprop-2-enyl] formate]	5.5%
CCCCCCC1CCCC(=O)O1 (stereo not shown) [6-hexyloxan-2-one]	−2.9%
c1cnc2cccnc2c1 [1,5-naphthyridine]	4.6%
CCc1nccnc1OC [2-ethyl-3-methoxypyrazine]	2.7%
CC1CCCC(C)N1 (stereo not shown) [2,6-dimethylpiperidine]	27.1%
CCC(=O)C(=O)O [2-oxobutanoic acid]	−4.0%
Cc1cc(O)cc(O)c1 [5-methylbenzene-1,3-diol]	−7.7%
C[N+](C)(C)CC(=O)[O-] [2-(trimethylazaniumyl)acetate]	3.7%
C=CCOC(=O)CCC [prop-2-enyl butanoate]	3.4%
CC1=CC(=O)CC1 [3-methylcyclopent-2-en-1-one]	−15.6%
CCCC(=O)c1ccccc1 [1-phenylbutan-1-one]	−4.3%
CCC/C=C/CO [(E)-hex-2-en-1-ol]	0.0%
CCCC(=O)C(=O)O [2-oxopentanoic acid]	−14.5%
CC(C)=CC(=O)O [3-methylbut-2-enoic acid]	27.4%
CC(=O)c1ccc[nH]1 [1-(1H-pyrrol-2-yl)ethanone]	−3.5%
CCc1ccc(C=O)cc1 [4-ethylbenzaldehyde]	−0.7%

SMILES	% Inhibition
C/C=C\C(=O)OCC(C)C [2-methylpropyl (Z)-but-2-enoate]	−3.0%
CC/C=C\CCCCCO [(Z)-non-6-en-1-ol]	−5.7%
CC(C)Cc1nccs1 [2-(2-methylpropyl)-1,3-thiazole]	−11.0%
CCc1nccnc1CC [2,3-diethylpyrazine]	1.3%
CCC(C)CC(=O)O (stereo not shown) [3-methylpentanoic acid]	0.5%
CCc1nccnc1C [2-ethyl-3-methylpyrazine]	6.7%
CCC=C(C)C=O [2-methylpent-2-enal]	0.7%
CC(=O)CC(C)(C)O [4-hydroxy-4-methylpentan-2-one]	−1.0%
C/C=C(\C)C(=O)OCCc1ccccc1 [2-phenylethyl (E)-2-methylbut-2-enoate]	−4.3%
CC(N)C(=O)O (stereo not shown) [2-aminopropanoic acid]	−0.8%
CSc1ccoc1C [2-methyl-3-methylsulfanylfuran]	−7.5%
CCOC1CCCO1 (stereo not shown) [2-ethoxyoxolane]	−2.5%
CC1(O)CCOC(=O)C1 (stereo not shown) [4-hydroxy-4-methyloxan-2-one]	−21.2%
c1ccnnc1 [pyridazine]	10.3%
O=C1CCCC(=O)C1 [cyclohexane-1,3-dione]	−5.1%
CCC(O)c1ccccc1 (stereo not shown) [1-phenylpropan-1-ol]	5.7%
O=C1CCCCN1 [piperidin-2-one]	−6.3%
CC(=O)C1=NCCS1 [1-(4,5-dihydro-1,3-thiazol-2-yl)ethanone]	−9.0%
C/C=C/C(=O)OCC [ethyl (E)-but-2-enoate]	−3.0%
CC(C)=CCCC(C)CC(=O)O (stereo not shown) [3,7-dimethyloct-6-enoic acid]	−3.5%
CC(C)=CCC/C(C)=C/COC=O [[(2E)-3,7-dimethylocta-2,6-dienyl] formate]	12.0%
Cc1ccc2ncccc2c1 [6-methylquinoline]	−4.5%
CC(C)SCc1ccco1 [2-(propan-2-ylsulfanylmethyl)furan]	−4.3%

SMILES	% Inhibition
CC(=O)CCc1ccccc1 [4-phenylbutan-2-one]	−0.7%
O=C1CCCN1 [pyrrolidin-2-one]	−7.5%
c1cnc2c(n1)CCCC2 [5,6,7,8-tetrahydroquinoxaline]	9.9%
CCc1ccc[nH]1 [2-ethyl-1H-pyrrole]	−7.5%
C/C=C(\C)C(=O)O [(E)-2-methylbut-2-enoic acid]	24.6%
CCC(=O)OCCc1ccccc1 [2-phenylethyl propanoate]	16.3%
CC(=O)CC(=O)OCc1ccccc1 [benzyl 3-oxobutanoate]	21.1%
CC(C)=CC1CC(C)CCO1 (stereo not shown) [4-methyl-2-(2-methylprop-1-enyl)oxane]	2.1%
COC(C)=O [methyl acetate]	−4.5%
CC(C)=CCC/C(C)=C/C(=O)O [(2E)-3,7-dimethylocta-2,6-dienoic acid]	−5.7%
OCCCCCc1ccccc1 [5-phenylpentan-1-ol]	16.0%
CCCCCC/C=C\CO [(Z)-non-2-en-1-ol]	10.3%
C=CC(CCCCC)OC(=O)CCC (stereo not shown) [oct-1-en-3-yl butanoate]	−4.0%
CC(C)CC(C)O (stereo not shown) [4-methylpentan-2-ol]	−18.7%
CCCc1ccc(O)cc1 [4-propylphenol]	−1.0%
CCc1cnccn1 [2-ethylpyrazine]	−10.6%
COc1nccnc1C [2-methoxy-3-methylpyrazine]	12.6%
CC(C)Cc1cccnc1 [3-(2-methylpropyl)pyridine]	1.0%
CC(O)C(=O)O (stereo not shown) [2-hydroxypropanoic acid]	9.7%
O=Cc1cnc[nH]1 [1H-imidazole-5-carbaldehyde]	−2.2%
CC1CCC(=O)C1=O (stereo not shown) [3-methylcyclopentane-1,2-dione]	−2.1%
CC1=C(O)C(=O)OC1C (stereo not shown) [4-hydroxy-2,3-dimethyl-2H-furan-5-one]	−5.0%
CCC(N)C(=O)O (stereo not shown) [2-aminobutanoic acid]	−10.3%

SMILES	% Inhibition
CCCC(=O)OCCc1ccccc1 [2-phenylethyl butanoate]	0.7%
CCCC(O)CCC [heptan-4-ol]	−3.1%
CC(=O)C(C)O (stereo not shown) [3-hydroxybutan-2-one]	−9.1%
CC(S)C(C)S (stereo not shown) [butane-2,3-dithiol]	−4.3%
Cc1ncsc1CCO [2-(4-methyl-1,3-thiazol-5-yl)ethanol]	4.9%
O=C1CNCCN1 [piperazin-2-one]	16.4%
CC(C)CC(=O)OCCc1ccccc1 [2-phenylethyl 3-methylbutanoate]	−0.5%
CC(=O)OCC1CCCO1 (stereo not shown) [oxolan-2-ylmethyl acetate]	−4.5%
Cc1cncc(C)c1 [3,5-dimethylpyridine]	−8.0%
Cc1ccccc1C=O [2-methylbenzaldehyde]	−6.4%
CCC(C)c1nccnc1OC (stereo not shown) [2-butan-2-yl-3-methoxypyrazine]	0.5%
CCCCCc1ccccn1 [2-pentylpyridine]	9.8%
CCOCc1cnccn1 [2-(ethoxymethyl)pyrazine]	3.0%
CC/C=C/C=O [(E)-pent-2-enal]	11.4%
O=COCc1ccccc1 [benzyl formate]	−3.5%
CC(C)OC(=O)c1ccccc1 [propan-2-yl benzoate]	−2.0%
CC1CC(=O)C(=O)C1C (stereo not shown) [3,4-dimethylcyclopentane-1,2-dione]	−3.5%
COC(=O)C(C)=O [methyl 2-oxopropanoate]	100%
CC(=O)c1ccncc1 [1-pyridin-4-ylethanone]	3.5%
Cc1cncc(C)n1 [2,6-dimethylpyrazine]	−0.4%
CCOC(=O)C(C)=O [ethyl 2-oxopropanoate]	92.8%
CC(C)[C@H](N)C(=O)O [(2S)-2-amino-3-methylbutanoic acid]	2.2%

From patent US9897592B2, “Methods for identifying arthropod repellents and attractants, and compounds and compositions identified by such methods” (The Regents of the University of California, priority 2013, dated 2018)
